PubChem BioAssay AID1745853 (National Center for Advancing Translational Sciences (NCATS), 2022)
This is one part of the list. Shown are side measurements of this screen, not its main read-out; they come without a call.

Key:
Assay in all cases: Primary Screen for Target Class Profiling of Small Molecule Inhibitors of Methyltransferases
[1] = target: Glycine N-methyltransferase (Homo sapiens) (UniProt Q14749); details: purified enzyme, MTase-Glo SAH luminescence; measured here: GNMT inhibition; at 40 µM; stronger effect = lower value
Procedure, shortened: (§1)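 Each enzyme was reacted with SAM and its substrate, with compounds tested once at 40 uM; SAH formed was read by MTase-Glo luminescence.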

[2] = target: Guanidinoacetate N-methyltransferase (Homo sapiens) (UniProt Q14353); details: purified enzyme, MTase-Glo SAH luminescence; measured here: GAMT inhibition; at 40 µM; stronger effect = lower value
Procedure, shortened: as §1

[3] = target: Histamine N-methyltransferase (Homo sapiens) (UniProt P50135); details: purified enzyme, MTase-Glo SAH luminescence; measured here: HNMT inhibition; at 40 µM; stronger effect = lower value
Procedure, shortened: as §1

[4] = target: Nicotinamide N-methyltransferase (Homo sapiens) (UniProt P40261); details: purified enzyme, MTase-Glo SAH luminescence; measured here: NNMT inhibition; at 40 µM; stronger effect = lower value
Procedure, shortened: as §1

[5] = target: Phenylethanolamine N-methyltransferase (Homo sapiens) (UniProt P11086); details: purified enzyme, MTase-Glo SAH luminescence; measured here: PNMT inhibition; at 40 µM; stronger effect = lower value
Procedure, shortened: as §1
On the % scale 0 is the no-effect control and ±100 the full control effect.

| SMILES | activity change, negative = inhibition [1] | activity change, negative = inhibition [2] | activity change, negative = inhibition [3] | activity change, negative = inhibition [4] | activity change, negative = inhibition [5] |
| --- | --- | --- | --- | --- | --- |
| CC1(C(=O)O)CCCC2(C)C3CCC4CC3(CCC12)CC4C(=O)O (stereo not given) | 0.669% | 2.97% | 10% | -8.84% | -1.27% |
| O=C([C@@H]1C[C@@H](c2ccc(F)cc2)N([S+](=O)([O-])c2cccnc2)C1)N1CCOCC1 | -5.06% | -8.02% | -2.15% | -13.2% | -9.11% |
| Cc1ccc2c(c1)c(-n1cccc1)c1n2CC(C)(C(=O)NCCC(C)C)N(Cc2cccs2)C1=O (stereo not given) | 1.19% | 0% | -0.453% | -8.13% | -1.42% |
| CCn1ncc(NC(=O)Cn2ncc3cc(-c4ccccc4F)ccc32)n1 | -8.13% | -3.94% | -2.22% | -5.68% | 2.14% |
| Cn1cc(CN2CCOc3cc([S+](=O)([O-])Nc4ccccc4)ccc3C2)cn1 | -3.25% | -1.62% | -0.122% | -1.57% | 4.11% |
| CS(=O)(=O)Nc1ccc(OCC(=O)N2CCN(c3ccc(F)cc3)CC2)nc1 | -2.58% | -1.35% | 2.05% | -4.44% | -3.85% |
| CCOC(=O)c1cccc(NC(=O)N2Cc3c(sc4c3CCCC4)-n3cccc3C2C(C)C)c1 (stereo not given) | -4.62% | 0% | -2.49% | -9.64% | -3.28% |
| C=CCn1c(=O)c2ccc(C(=O)NCC(C)C)cc2n2c(=O)n(CC(=O)NC3CCCC3)nc12 | -0.893% | 2.44% | 4.47% | -16.6% | -3.24% |
| COCCn1c(C)cnc1CCNC(=O)Cn1nc(C(F)(F)F)cc1C | 0.149% | -0.853% | 2.17% | -9.91% | 12.5% |
| Cc1cc2c(cc1N1C(=O)c3cccc4c(CCCO)ccc(c34)C1=O)n(C)c(=O)n2C | -19.5% | -19.5% | 5.94% | -24.1% | -8.57% |
| O=c1cc2c(nn1Cc1cccc(Br)c1)CCCCC2 | -9.34% | -1.69% | -4.05% | -28.8% | -4.95% |
| CC(C)N1C(=O)[C@@H]2[C@@H](CCN2C(=O)CCCC(=O)O)N(Cc2cccc(F)c2)C1=O | -1.88% | -7.27% | -0.238% | -4.71% | -3.81% |
| Cc1oc2nc3c(c(NC(=O)CN4CCCC4=O)c2c1C)CCCC3 | -6.5% | -7.75% | 1.58% | -17.5% | -3.96% |
| CCCC1=CC2=C(CO1)C(=O)C(C)(OC(=O)c1c(C)cc(OC)cc1O)C(O)C2 (stereo not given) | -0.782% | 4.11% | 7.36% | -10.6% | -2.48% |
| O=C(COc1ccc2ccccc2c1Br)Nc1cccnc1 | -11.6% | 3.2% | 9.02% | -25.1% | -6.38% |
| CC(C)c1cccc(C(C)C)c1NC(=O)Nc1ccc(Sc2ccc([N+](=O)[O-])cc2)cc1 | 1.83% | -39.1% | 8.67% | -42.5% | -4.03% |
| CN(CCC1CCOCC1)Cc1ccccc1OCC(O)CN1CCSCC1 (stereo not given) | 1.62% | 1.67% | 0.198% | -2.86% | 14.2% |
